Laboratory results reported in PubChem BioAssay AID624296 (National Center for Advancing Translational Sciences (NCATS), 2012).
Several values for one entry are separate records, joined by “and”; a condition that tells them apart may be missing. Equal entries are not always repeated. The campaign covered roughly 350,000 compounds. About 9,900 (2.8%) were called active. This list was built around the results that the source calls inconclusive (neither active nor inactive); the mix of calls is not that of the screen. The call rests on the fitted dose curve; in most records, active means well fitted activation curve with a large enough effect; inconclusive means small, poorly fitted or top-dose-only effect; inactive means no such curve, though single readings can be large or run the other way. Potencies of inconclusive entries are doubtful fits and often do not repeat.

assay: A quantitative high throughput screen for small molecules that induce DNA re-replication in MCF 10a normal breast cells.; further: nearly all actives have a fitted effect of over 50% in size; details: MCF 10A DNA re-replication, Hoechst nuclear intensity, 48 h; series mostly up to 46.1 µM
Potency means the concentration at half of the fitted maximal effect; tags describe the fitted curve by direction and shape.

SMILES | Potency
CCOC(=O)C1(c2ccccc2)CCN(CCC(C#N)(c2ccccc2)c2ccccc2)CC1 | inconclusive: 3.66 µM [activator, single point] and inconclusive: 18.8 µM [activator, partial curve]
CC1OC(NCCc2ccccc2)C(O)C(O)C1O (centres undefined) | inactive
Cc1cccc(OP(N)(=O)Oc2cccc(C)c2C)c1C | inactive
O=C1NC(=O)C2(Cc3c(nc4ccccn4c3=O)N3CCCCCC32)C(=O)N1Cc1ccccc1 (centres undefined) | inconclusive: 18.4 µM [activator, partial curve, poor fit]
CC(C)(O)[C@H]1O[C@H]2CC[C@@]3(C)[C@@](O)(CC[C@H]4Cc5c([nH]c6ccccc56)[C@@]43C)C2=CC1=O | inconclusive: 2.06 µM [activator, partial curve]
C=C[C@@H]1C2=CCOC(=O)C2=CO[C@H]1O[C@@H]1O[C@H](CO)[C@@H](O)[C@H](O)[C@H]1O | inactive
Cc1c(-c2cccc(Cl)c2)nc2ccccc2c1C(=O)N1CCC2(CC1)OCCO2 | inconclusive: 20.6 µM [activator, partial curve, poor fit]
COC(=O)C1=C(c2ccc(F)cc2OCc2ccccc2)C[C@@H]2CC[C@H]1N2C(=O)NCc1ccccc1OC | inconclusive: 16.4 µM [activator, single point]
COC(=O)C1=C(c2cc3ccccc3s2)C[C@@H]2CC[C@H]1N2C(=O)NCc1ccc(F)cc1 | inconclusive: 8.2 µM [activator, partial curve, poor fit]
COc1cc(CC(C)N)c(OC)cc1I (centres undefined) | inactive
COCCCn1c(=O)/c(=C\c2ccccc2OC(F)F)s/c1=C(/C#N)C(=O)NCCOC | active: 14.6 µM
O=C(c1ccccc1)C1NC1c1ccccc1 (centres undefined) | inactive
O=S(=O)(Nc1c(O)ccc2ccccc12)c1ccc(F)cc1 | inconclusive: 29.1 µM [activator, single point]
CCCNc1oc(-c2cccc3ccccc23)nc1C#N | inconclusive: 5.17 µM [activator, full curve]
COc1ccc(CN2CCN(C(=O)Cc3ccccc3)CC2)c(OC)c1 | inconclusive: 0.58 µM [activator, partial curve, poor fit]
O=c1c2ccccc2nc(-c2ccc(-c3ccccc3)cc2)n1-c1ccncc1 | inconclusive: 2.31 µM [activator, partial curve, poor fit]
CCCCCCn1c(O)c(C=NC2CCCCC2N)c(=O)[nH]c1=O (centres undefined) | inconclusive: 29.1 µM [activator, single point]
CCOC(=O)CSc1ccc(C(=O)N2CCC3(CC2)OCCO3)cc1[N+](=O)[O-] | inactive
NCCc1c[nH]c2ccc(OCc3ccccc3)cc12 | inconclusive: 32.6 µM [activator, single point]
OCC1OC(O)CC(O)C1O (centres undefined) | inconclusive: 16.4 µM [activator, single point]
COCCO[C@H]1CC[C@@]2(C)C(=CCC3C2CC[C@@]2(C)C3CC[C@]2(C)O)C1 (some centres undefined) | inconclusive: 13 µM [activator, partial curve]
CCN(C=C1CC2C3CC=C4CC(O)CCC4(C)C3CCC2(C)C1=O)CC (centres undefined) | inconclusive: 29.1 µM [activator, single point]

SMILES | Potency
COc1ccc(C(=O)C2CCCN(C3CSCCSC3)C2)cc1OC (centres undefined) | inconclusive: 18.4 µM [activator, single point]
C=CC[C@@H](CC/C=C/C=C/CC/C=C\[C@@H]1CSC([C@@H]2C[C@@H]2C)=N1)OC | active: 0.731 µM
C=C(C)[C@@H]1[C@H]2OC(=O)[C@H]1[C@]1(O)C[C@H]3O[C@]34C(=O)O[C@H]2[C@]14C | inconclusive: 0.731 µM [activator, partial curve, poor fit]
O=[N+]([O-])c1ccc(N2CCCC(C(F)(F)F)C2)c2ccncc12 (centres undefined) | inconclusive: 23.1 µM [activator, partial curve, poor fit]
CCOc1ccccc1-n1c(O)c(C=Nc2ccc(N(CC)CC)cc2)c(=O)[nH]c1=O | inconclusive: 29.1 µM [activator, single point]
S=P(N1CCOCC1)(N1CC1)N1CC1 | inconclusive: 0.651 µM [activator, full curve, poor fit]
O=c1[nH]c(=O)n(Cc2ccccc2Cl)c(O)c1/C=C1/C=CC=N1 | active: 6.51 µM
COc1cc(/C=N/Nc2ccc(S(N)(=O)=O)cc2)cc(OC)c1OC | inconclusive: 32.6 µM [activator, partial curve, poor fit]
C[C@]12CCC3C(CC[C@H]4C[C@@H](O)CC[C@]34C)C1CC[C@@H]2OC(=O)[C@H](N)CCCCN (some centres undefined) | inconclusive: 29.1 µM [activator, single point]
NNCc1cccc(O)c1 | inconclusive: 25.9 µM [activator, single point]
CC(C)CN(CC(C)C)c1ccc(C=C2C(=O)NC(=S)NC2=O)cc1[N+](=O)[O-] | inconclusive: 29.1 µM [activator, single point]
COc1ccc(C(=O)CN2CCCCC2)cc1 | inactive
CN1C(=O)C(=Cc2ccc(-c3cccc(Cl)c3)o2)C(=O)N(C)C1=O | inconclusive: 29.1 µM [activator, single point]
CNc1cc(Cl)c2nonc2c1[N+](=O)[O-] | inconclusive: 0.562 µM [activator, partial curve, poor fit]
CN(C)C(=O)On1c(-c2ccccc2)nc2ccc(Cl)cc21 | inactive
Cc1ccc(N=C2N=C(N)c3ccccc32)c(C)c1 | inconclusive: 7.08 µM [activator, partial curve, poor fit]
Cc1ccc(S(=O)(=O)N2CC2(C)CCl)cc1 (centres undefined) | inconclusive: 25.9 µM [activator, partial curve]
N#Cc1ccccc1Cn1cc(C(=O)c2ccco2)c2ccccc21 | inconclusive: 1.46 µM [activator, full curve, poor fit]
O=c1c2ccccc2nc(-c2ccco2)n1-c1nccs1 | inconclusive: 11.6 µM [activator, partial curve]
CCC(=Nc1ccc(OC)cc1OC)c1c(O)n(C2CCCCC2)c(=O)[nH]c1=O | inconclusive: 14.6 µM [activator, partial curve]
N=C(N)c1c(O)n(C2CCCCC2)c(=O)n(C2CCCCC2)c1=O | inconclusive: 23.1 µM [activator, partial curve, poor fit]
O=C(Cc1n[nH]c(=O)c2ccccc12)OCc1c(Cl)cccc1Cl | inconclusive: 16.4 µM [activator, single point]

SMILES | Potency
Cc1ccccc1C1=NCC(=O)N(CC(=O)NCc2ccco2)c2sc3c(c21)CCCC3 | inconclusive: 29.1 µM [activator, single point]
COc1ccc(-n2c(/C=C/c3ccc(O)cc3)nc3ccccc3c2=O)cc1 | active: 0.82 µM
CCN(CC)CCCN=Cc1c(O)n(CCc2ccc(F)cc2)c(=O)[nH]c1=O | inconclusive: 14.6 µM [activator, partial curve, poor fit]
O=[N+]([O-])c1ccc(C(c2ccc([N+](=O)[O-])cc2)c2ccc([N+](=O)[O-])cc2)cc1 | inconclusive: 23.1 µM [activator, single point]
Cc1ccccc1N1C(=O)NC(=O)/C(=C/c2ccc(N3CCOCC3)o2)C1=O | inconclusive: 6.51 µM [activator, single point]
C[C@]12CC[C@@H](O)CC1=CC(=O)C1C2CC[C@]2(C)C(=O)CCC12 (some centres undefined) | inconclusive: 20.6 µM [activator, partial curve, poor fit]
CCCCn1c(O)c(/C=N/NC(=O)c2ccncc2)c(=O)[nH]c1=O | inconclusive: 29.1 µM [activator, single point]
COc1ccc(S(=O)(=O)Nc2cc([N+](=O)[O-])ccc2OC)cc1 | inconclusive: 7.31 µM [activator, partial curve]
COc1cc2c(cc1O)C[C@H]1NCCc3cc4c(c-2c31)OCO4 | active: 18.4 µM
O=[N+]([O-])c1c(Cl)cccc1-c1c[nH]cc1Cl | inconclusive: 21.1 µM [activator, partial curve]
CCn1c(C)[n+](CC(O)COCC2CC=CCC2)c2ccccc21 (centres undefined) | inconclusive: 14.6 µM [activator, single point]
Oc1ccccc1-[n+]1c(-c2ccccc2)cc(-c2ccccc2)c(O)c1-c1ccccc1 | inconclusive: 29.1 µM [activator, single point]
c1cncc(CNCCc2ccc3c(c2)OCO3)c1 | inactive
O=[N+]([O-])/C(Cl)=C1\NCCN1Cc1ccc(Cl)nc1 | inactive
CN1CCN(Cc2nc3ccccc3c(=O)[nH]2)CC1 | inactive
O=P1(c2ccccc2)Nc2ccccc2N1c1ccccc1 (centres undefined) | inconclusive: 29.1 µM [activator, single point]
Cc1ccc(NC(=O)COC(=O)CCc2c[nH]c3ccccc23)cc1[N+](=O)[O-] | inconclusive: 6.51 µM [activator, single point]
CCOP(=O)(OCC)c1nc(-c2cccc3ccccc23)oc1NCc1ccccc1 | inconclusive: 5.8 µM [activator, single point]
CSc1ccccc1NC(=O)CN(C)CC(=O)c1[nH]c(C)c(C(C)=O)c1C | inconclusive: 23.1 µM [activator, partial curve, poor fit]
COCCOC(=O)c1c(C)n(C)c2ccc(OC(=O)N(C)C)cc12 | inactive
